The experiment relates to RPE1. Put plainly: nucleolar normality score relative to DMSO (fraction of DMSO control); RPE1 is a non-cancer human cell line; higher = more normal nucleoli (less nucleolar stress). To be noted: 24 h.

Where a name gives a salt, the structure may show the parent alone. This is one part of the list.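 How the source made its calls: active = more than 2 SD below the DMSO mean: under 0.85 at 10 µM or 0.885 at 1 µM; inactive = the rest.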 Repeats are few or missing, and single values can be far off.

The values below come from the supplement of paper PMC10723795.
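Further: fixed cells immunolabelled for nucleolin and UBF, 40 image fields per well in 384-well plates, per-cell score = nucleolin nucleolar/nucleoplasm intensity ratio divided by the matching UBF ratio.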

In the case of `Clc1ccc2nsnc2c1NC1=NCCN1` [Tizanidine], the nucleolar normality score (1 µM) is inactive: 1.03 and the nucleolar normality score (10 µM) is inactive: 1.06.

`Nc1nc(OCc2cc(Br)cs2)c2[nH]cnc2n1` [Lomeguatrib]: the nucleolar normality score by setting is: (1 µM) inactive: 1.04; (10 µM) inactive: 1.06.

Turning to `CC(C)c1c2cc(-c3ccnc(NC4CCC(NC5CCOCC5)CC4)n3)ccc2nn1C` (stereo not drawn), the nucleolar normality score by setting is: (1 µM) active: 0.189; (10 µM) active: 0.143.

Regarding `N#Cc1ccc2ncnc(NCCc3ccccc3)c2c1` [Senexin A], the nucleolar normality score (1 µM) is inactive: 0.992 and the nucleolar normality score (10 µM) was inactive: 0.987.

`O=[N+]([O-])c1ccc(Nc2nc(N3CCOCC3)nc(N3CCOCC3)n2)cc1`: the nucleolar normality score is, setting by setting: (1 µM) inactive: 1.07; (10 µM) inactive: 1.08.

As to `Cc1ccc(S(=O)(=O)Nc2nc3ccccc3nc2Nc2ccc3nsnc3c2)cc1` [XL147 analogue], the nucleolar normality score reads like this: (1 µM) inactive: 0.982; (10 µM) inactive: 1.02.

As to `CCOC(=O)C1=C(N)Oc2ccc(Br)cc2C1C(C#N)C(=O)OCC` (stereo not drawn), the nucleolar normality score (1 µM) is inactive: 1.01 and the nucleolar normality score (10 µM) is inactive: 1.01.

Consider `Cc1c(-c2ccc(O)cc2)n(Cc2ccc(OCCN3CCCCCC3)cc2)c2ccc(O)cc12` [Bazedoxifene Acetate], for which the nucleolar normality score runs as follows: (1 µM) inactive: 1.09; (10 µM) inactive: 1.11.

Turning to `O=C1C(Cl)=C(N2CCOCC2)C(=O)N1c1ccc(Cl)c(Cl)c1`, the nucleolar normality score by setting is: (1 µM) inactive: 1.08; (10 µM) inactive: 1.09.

On to `Cc1ccc(-c2cc(C(F)(F)F)nn2-c2ccc(S(N)(=O)=O)cc2)cc1` [Celecoxib], for which the nucleolar normality score (1 µM) is inactive: 1.07 and the nucleolar normality score (10 µM) is inactive: 1.05.

For `CCn1c(N)c(C(=O)NC)c(=O)c2ccc(C#CC(C)(O)COC)nc21` (stereo not drawn), the nucleolar normality score (1 µM) was inactive: 1.08 and the nucleolar normality score (10 µM) was inactive: 0.879.

On to `CCOC(=O)C1=C(C)NC(=S)NC1c1cccc(O)c1` (stereo not drawn) [Monastrol], for which the nucleolar normality score by setting is: (1 µM) inactive: 0.999; (10 µM) inactive: 1.05.

With `Cc1cc(O)c(-c2ccc(C(C)CN)cc2)c2c1[nH]c(=O)c1sccc12` (stereo not drawn) [OTS514 hydrochloride], the nucleolar normality score (1 µM) was active: 0.23 and the nucleolar normality score (10 µM) is active: 0.199.

Take `COc1ccc2c(c1)[C@]1(C[C@H]1c1ccc3c(/C=C/c4ccc(CN5C[C@@H](C)O[C@@H](C)C5)cc4)n[nH]c3c1)C(=O)N2`: the nucleolar normality score runs as follows: (1 µM) inactive: 0.927; (10 µM) inactive: 0.924.

In the case of `OCCn1cc(-c2ccc3c(c2)CC/C3=N\O)c(-c2ccncc2)n1`, the nucleolar normality score was inactive: 1.04 (1 µM) and inactive: 1.04 (10 µM).

Take `Nc1nc2c(cnn2CCc2ccccc2)c2nc(-c3ccco3)nn12`: the nucleolar normality score (1 µM) is inactive: 0.986 and the nucleolar normality score (10 µM) is inactive: 0.972.

As for `COc1cc2nccc(Oc3ccc(NC(=O)c4cn(C(C)C)c(=O)n(-c5ccc(F)cc5)c4=O)cc3F)c2cc1OC`, the nucleolar normality score is, setting by setting: (1 µM) inactive: 0.942; (10 µM) inactive: 1.04.

Turning to `CNC(=O)c1c(F)cccc1Nc1nc(Nc2cc3c(cc2OC)CCN3C(=O)CN(C)C)nc2[nH]ccc12`, the nucleolar normality score by setting is: (1 µM) inactive: 1.01; (10 µM) inactive: 0.885.

On to `NC[C@H]1O[C@H](O[C@H]2[C@H](O)[C@@H](O[C@H]3O[C@H](CO)[C@@H](O)[C@H](N)[C@H]3O)[C@H](N)C[C@@H]2N)[C@H](N)C[C@@H]1O` [Tobramycin sulfate], for which the nucleolar normality score runs as follows: (1 µM) inactive: 1.05; (10 µM) active: 0.514.

For `O=C(/C=C/c1cccc(S(=O)(=O)Nc2ccccc2)c1)NO` [Belinostat (PXD101)], the nucleolar normality score runs as follows: (1 µM) inactive: 0.984; (10 µM) inactive: 1.06.

In the case of `CC(C)(C)c1cc(NC(=O)Nc2ccc(-c3cn4c(n3)sc3cc(OCCN5CCOCC5)ccc34)cc2)no1` [Quizartinib (AC220)], the nucleolar normality score (1 µM) was inactive: 1.01 and the nucleolar normality score (10 µM) is inactive: 1.02.

Regarding `O=c1c(O)c(-c2ccc(O)cc2)oc2cc(O)cc(O)c12` [Kaempferol], the nucleolar normality score was inactive: 0.993 (1 µM) and inactive: 0.864 (10 µM).

`NC[C@@](O)(c1ccc(Cl)cc1)c1ccc(-c2cn[nH]c2)cc1`: the nucleolar normality score is, setting by setting: (1 µM) inactive: 0.969; (10 µM) inactive: 0.891.

Regarding `CC(C)NC(=O)C1CCC(n2c(NC(=O)c3ccc(F)cc3)nc3ccc(CN4CCC(C(C)(C)O)CC4)cc32)CC1` (stereo not drawn) [Belizatinib (TSR-011)], the nucleolar normality score was inactive: 1.04 (1 µM) and inactive: 1.07 (10 µM).

As for `N#C/C(=C(/N)Sc1ccc(N)cc1)c1ccccc1C(F)(F)F`, the nucleolar normality score (1 µM) was inactive: 1.02 and the nucleolar normality score (10 µM) is inactive: 1.08.

`CCCc1ccc(OCC(=O)N(Cc2nc(-c3cccnc3)no2)C(C)C)cc1`: the nucleolar normality score is inactive: 0.905 (1 µM) and inactive: 0.96 (10 µM).

Consider `CNC(=O)c1ccc(N2C(=S)N(c3ccc(C#N)c(C(F)(F)F)c3)C(=O)C2(C)C)cc1F` [Enzalutamide (MDV3100)], for which the nucleolar normality score by setting is: (1 µM) inactive: 1.06; (10 µM) inactive: 1.14.

For `CC(=O)Nc1nc(-c2cccc(NS(=O)(=O)c3cccc4c(N(C)C)cccc34)c2)cs1`, the nucleolar normality score is inactive: 1.01 (1 µM) and inactive: 1.01 (10 µM).

For `COC(=O)[C@H](CC(C)C)NC(=O)c1ccc(NC[C@@H](N)CS)cc1-c1cccc2ccccc12` [GGTI 298 TFA salt], the nucleolar normality score is, setting by setting: (1 µM) inactive: 0.952; (10 µM) inactive: 0.987.

In the case of `CC#C[C@]1(O)CC[C@H]2[C@@H]3CCC4=CC(=O)CCC4=C3[C@@H](c3ccc(N(C)C)cc3)C[C@@]21C` [Mifepristone], the nucleolar normality score is inactive: 1.09 (1 µM) and inactive: 1.1 (10 µM).

As for `CC[C@@H]1C(=O)N(C)c2cnc(Nc3ccc(C(=O)N[C@H]4CC[C@H](N5CCN(CC6CC6)CC5)CC4)cc3OC)nc2N1C(C)C` [Volasertib (BI 6727)], the nucleolar normality score reads like this: (1 µM) inactive: 0.949; (10 µM) inactive: 0.93.

With `COC(=O)N[C@@H](C)CNc1nccc(-c2cn(C(C)C)nc2-c2cc(Cl)cc(NS(C)(=O)=O)c2F)n1` [Encorafenib (LGX818)], the nucleolar normality score runs as follows: (1 µM) inactive: 1; (10 µM) active: 0.838.

`CC(O)c1cc(C(=O)N[C@@H](C)Cn2ccc(-c3ccc(C#N)c(Cl)c3)n2)n[nH]1` (stereo partly drawn) [Darolutamide (ODM-201)]: the nucleolar normality score is inactive: 1.02 (1 µM) and inactive: 1.04 (10 µM).

For the compound `CCCCCCNC(=O)n1cc(F)c(=O)[nH]c1=O` [Carmofur], the nucleolar normality score is inactive: 0.911 (1 µM) and inactive: 1.06 (10 µM).

In the case of `COc1cccc2c1C(=O)c1c(O)c3c(c(O)c1C2=O)C[C@@](O)(C(=O)CO)C[C@@H]3O[C@H]1C[C@H](N)[C@H](O[C@@H]2CCCCO2)[C@H](C)O1` [Pirarubicin], the nucleolar normality score (1 µM) is active: 0.259 and the nucleolar normality score (10 µM) was active: 0.166.

`COCCCc1sc(-c2ccccc2)nc1C(=O)Nc1ccccc1-c1nc2cc(CN3CCCC3)cnc2s1`: the nucleolar normality score was inactive: 0.994 (1 µM) and inactive: 1.01 (10 µM).

Turning to `CCOC(=O)C1=C(N)Oc2ccc(Cl)cc2C1C(C#N)C(=O)OCC` (stereo not drawn), the nucleolar normality score (1 µM) was inactive: 1 and the nucleolar normality score (10 µM) is inactive: 0.977.

For the compound `Cc1nc(C(=O)NCC(=O)O)c(O)c2ccc(Oc3ccccc3)cc12` [Roxadustat (FG-4592)], the nucleolar normality score runs as follows: (1 µM) inactive: 0.934; (10 µM) inactive: 1.08.

As to `CC[C@H](NC(=O)[C@H](C)NC)C(=O)N1C[C@@H](O)C[C@H]1Cc1c(-c2[nH]c3cc(F)ccc3c2C[C@@H]2C[C@H](O)CN2C(=O)[C@H](CC)NC(=O)[C@H](C)NC)[nH]c2cc(F)ccc12` [Birinapant], the nucleolar normality score (1 µM) was inactive: 1.06 and the nucleolar normality score (10 µM) is inactive: 0.936.

For `C/C=C\c1ccc(OC)cc1` [cis-Anethole], the nucleolar normality score is inactive: 0.927 (1 µM) and inactive: 0.96 (10 µM).

For `O=c1cc(-c2ccccc2)oc2ccccc12` [Flavone], the nucleolar normality score (1 µM) was inactive: 1.1 and the nucleolar normality score (10 µM) was inactive: 0.918.

Consider `C[C@H]1[C@H](C)CC[C@]2(C(=O)O)CC[C@]3(C)C(=CC[C@@H]4[C@@]5(C)CC[C@H](O)C(C)(C)[C@@H]5CC[C@]43C)[C@H]12` [Ursolic Acid], for which the nucleolar normality score (1 µM) was inactive: 1.01 and the nucleolar normality score (10 µM) is inactive: 0.869.

`NC(=O)Nc1cc(-c2cccc(F)c2)sc1C(=O)N[C@H]1CCCNC1`: the nucleolar normality score (1 µM) is inactive: 1.05 and the nucleolar normality score (10 µM) was inactive: 1.09.

`Nc1nccc(Oc2ccc(NC(=O)c3c[nH]cc(-c4ccc(F)cc4)c3=O)cc2F)c1Cl`: the nucleolar normality score (1 µM) was inactive: 1.01 and the nucleolar normality score (10 µM) is inactive: 1.08.

`Cc1nc2c(-c3cnc(N)nc3)nc(N3CCOCC3)nc2n1C(C)C`: the nucleolar normality score (1 µM) was inactive: 0.974 and the nucleolar normality score (10 µM) was active: 0.719.

Turning to `CC(C)c1ccccc1Cc1cc(C(=O)Nc2ccc(S(=O)(=O)c3ccccc3C(C)(C)C)cc2)c(O)c(O)c1O`, the nucleolar normality score (1 µM) was inactive: 1.02 and the nucleolar normality score (10 µM) was inactive: 1.05.

With `CN(C)S(=O)(=O)c1ccc2c(c1)/C(=C/c1cc3c([nH]1)CCCC3)C(=O)N2`, the nucleolar normality score is inactive: 1.08 (1 µM) and inactive: 1.09 (10 µM).

`C[C@]12C=CC(=O)N[C@@H]1CC[C@@H]1[C@@H]2CC[C@]2(C)[C@@H](C(=O)Nc3cc(C(F)(F)F)ccc3C(F)(F)F)CC[C@@H]12` [Dutasteride]: the nucleolar normality score is, setting by setting: (1 µM) inactive: 1.03; (10 µM) inactive: 1.04.

Consider `Nc1ccccc1NC(=O)c1cnccn1`, for which the nucleolar normality score by setting is: (1 µM) inactive: 1.03; (10 µM) inactive: 1.09.

For `COc1ccc(Cl)c(Nc2nc3ccccc3nc2NS(=O)(=O)c2cccc(NC(=O)C(C)(C)N)c2)c1` [Pilaralisib (XL147)], the nucleolar normality score is, setting by setting: (1 µM) inactive: 0.948; (10 µM) inactive: 1.02.

Turning to `O=C(Cc1ccccc1)Nc1nnc(CCSCCc2nnc(NC(=O)Cc3ccccc3)s2)s1`, the nucleolar normality score by setting is: (1 µM) inactive: 1.06; (10 µM) inactive: 1.

With `Cc1cnc(Nc2ccc(OCCN3CCCC3)cc2)nc1Nc1cccc(S(=O)(=O)NC(C)(C)C)c1`, the nucleolar normality score (1 µM) is inactive: 0.968 and the nucleolar normality score (10 µM) is active: 0.819.

In the case of `CC(C)Oc1ccc(-c2cnc3c(-c4ccnc5ccccc45)cnn3c2)cc1`, the nucleolar normality score is, setting by setting: (1 µM) inactive: 0.894; (10 µM) inactive: 1.03.

Take `c1ccc2c(CCNc3ccc(Nc4ccncc4)cc3)c[nH]c2c1`: the nucleolar normality score is, setting by setting: (1 µM) inactive: 1.05; (10 µM) inactive: 1.08.

With `COc1c(C)cnc(Cn2cnc3c(Cl)nc(N)nc32)c1C`, the nucleolar normality score is, setting by setting: (1 µM) active: 0.396; (10 µM) active: 0.406.

For the compound `CN(C)C(=N)NC(=N)N` [Metformin HCl], the nucleolar normality score is inactive: 1.01 (1 µM) and inactive: 1.08 (10 µM).

As for `CC(C)c1cccc(O)c(=O)c1` [β-thujaplicin], the nucleolar normality score reads like this: (1 µM) inactive: 0.999; (10 µM) inactive: 0.911.

Take `Cc1csc(-c2nnc(Nc3ccc(Oc4ncccc4-c4ccnc(N)n4)cc3)c3ccccc23)c1`: the nucleolar normality score is inactive: 0.98 (1 µM) and inactive: 1.01 (10 µM).

Regarding `C=C1C(=O)O[C@@H]2C[C@@]3(C)CCCC(=C)[C@@H]3C[C@H]12` [Isoalantolactone], the nucleolar normality score reads like this: (1 µM) inactive: 0.985; (10 µM) inactive: 0.878.
